# The shares of active, inactive and inconclusive entries below differ from those in the screen. For part of these data: No potency is given beside an inconclusive call; the fits are too rough. Calls of active or inactive are those of the source. Unless noted, the call rests on the fitted dose curve; in most records, active means well fitted curve in the direction sought with a large enough effect; inconclusive means small, poorly fitted or top-dose-only effect, or another doubt; inactive means no such curve, though single readings can be large; an effect the other way counts as inactive or inconclusive.
# Assays:
# [1] = target: Cytochrome P450 2D6 (Homo sapiens) (UniProt P10635); test: Cytochrome P450 family 2 subfamily D member 6 (CYP2D6) small molecule antagonists: luciferase biochemical (cell-free) qHTS assay (AID 1645840; active means well fitted curve in the direction sought with a large enough effect in the repeat runs; inconclusive means weak or mixed curves; inactive means no such curve, though single readings can be large; an effect the other way counts as inactive or inconclusive; further: nearly all actives have a fitted effect of over 55% in size)
# In short: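 P450-Glo CYP2D6 system: proluciferin substrate converted by enzyme to luciferin, read by luminescence proportional to activity. Enzyme-substrate mix with compound 10 min at room temperature, then NADPH regeneration 1 h before detection reagent.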
# [2] = target: Cytochrome P450 2C9 (Homo sapiens) (UniProt P11712); test: Cytochrome P450 family 2 subfamily C member 9 (CYP2C9) small molecule antagonists: luciferase biochemical (cell-free) qHTS assay (AID 1645842; active means well fitted curve in the direction sought with a large enough effect in the repeat runs; inconclusive means weak or mixed curves; inactive means no such curve, though single readings can be large; an effect the other way counts as inactive or inconclusive; further: potency means the concentration at half of the fitted maximal effect; nearly all actives have a fitted effect of over 55% in size)
# In short: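 P450-Glo CYP2C9 system: proluciferin substrate with enzyme in mix containing 0.4% BSA, 10 min at room temperature, then NADPH regeneration solution added and incubated 1 h at 37C. Detection reagent stopped reaction; luminescence read after 20 min as RLU.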
# [3] = Primary qHTS for inhibitors of nuclear receptor binding SET domain protein 2 (NSD2) in an isogenic RCH-ACV NSD2 p.E1099K mutant (9B) (AID 1645876); conditions: activity change, negative = viability loss: at 44.9 µM (top of the series) unless noted; further: nearly all actives have a fitted effect of over 70% in size; further: potency means the concentration at half of the fitted maximal effect
# [4] = Primary redox qHTS assay for identification of artifact compounds. (AID 1845223)
# In short: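 Redox-cycling detection via DTT (250 uM final) oxidation coupled to Amplex Red (25 uM)/HRP (250 mU/mL) in HBSS. 15 min preincubation plus 30 min after DTT, room temperature. Ex/Em 525/598 nm; 4-parameter Hill fit against DMSO and 10 uM DA3003.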
# [5] = tested on: OV90; test: Primary qHTS to identify gynecologic anti-cancer compounds using libraries of approved drugs and bioactive compounds (AID 1345084); conditions: Gynecologic cancer cell panel viability, ATPlite luminescence, 48 h; series mostly up to 57.5 µM; further: nearly all actives have a fitted effect of over 55% in size; further: potency means the concentration at half of the fitted maximal effect
# In short: (§1)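 Five-point cytotoxicity, 48 h drug exposure at 37 C, 5% CO2, on cells seeded 16 h beforehand. ATP content read by ATPlite luminescence.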
# [6] = tested on: SKOV3; test: as above; conditions: Gynecologic cancer cell panel viability, ATPlite luminescence, 48 h; series mostly up to 57.5 µM
# In short: as §1
# [7] = tested on: Tov-21-G; test: as above; conditions: Gynecologic cancer cell panel viability, ATPlite luminescence, 48 h; series mostly up to 57.5 µM
# In short: as §1
# [8] = tested on: Tov112D; test: as above; conditions: Gynecologic cancer cell panel viability, ATPlite luminescence, 48 h; series mostly up to 57.5 µM
# In short: as §1
# [9] = Primary fluorescence-based thiol-reactive (MSTI) qHTS assay for identification of artifact compounds. (AID 1845221);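 further: potency means the concentration at half of the fitted maximal effect; thiol-reactive compounds lower the probe fluorescence signal; nearly all actives have a fitted effect of over 65% in size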
# In short: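 Thiol-reactive compounds detected by quenching of 4 uM MSTI fluorescence (525/598 nm) after 1 h room-temperature dark incubation in PBS pH 7.4, 2% DMSO. qHTS titration; percent inhibition Hill-fitted against Acetyl-MSTI/MSTI controls.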
# [10] = Primary qHTS for inhibitors of nuclear receptor binding SET domain protein 2 (NSD2) in an RCH-ACV wild type WT cells (2C) (AID 1645877); conditions: activity change, negative = cell killing: at 44.9 µM (top of the series) unless noted; further: potency means the concentration at half of the fitted maximal effect; nearly all actives have a fitted effect of over 70% in size
# [11] = tested on: JEG-3; test: Primary qHTS to identify gynecologic anti-cancer compounds using libraries of approved drugs and bioactive compounds (AID 1345084); conditions: Gynecologic cancer cell panel viability, ATPlite luminescence, 48 h; series mostly up to 57.5 µM; further: nearly all actives have a fitted effect of over 55% in size; further: potency means the concentration at half of the fitted maximal effect
# In short: as §1
# [12] = tested on: Zika virus NS2B-NS3 protease (linked construct); test: Primary screen NINDS Rhodamine qHTS for Zika virus inhibitors (AID 1347160)
# In short: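 Enzyme (25 nM, linked NS2B-NS3) was preincubated 15 min with compound in 10 mM Tris-HCl pH 8.0, 0.01% Tween 20. Rhodamine110 substrate (1.5 microM) was then added and fluorescence read at start and after 15 min.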
# Tags describe the fitted curve by direction and shape.
# Chain of UniProt P11712 (P11712 whole entry, looked up): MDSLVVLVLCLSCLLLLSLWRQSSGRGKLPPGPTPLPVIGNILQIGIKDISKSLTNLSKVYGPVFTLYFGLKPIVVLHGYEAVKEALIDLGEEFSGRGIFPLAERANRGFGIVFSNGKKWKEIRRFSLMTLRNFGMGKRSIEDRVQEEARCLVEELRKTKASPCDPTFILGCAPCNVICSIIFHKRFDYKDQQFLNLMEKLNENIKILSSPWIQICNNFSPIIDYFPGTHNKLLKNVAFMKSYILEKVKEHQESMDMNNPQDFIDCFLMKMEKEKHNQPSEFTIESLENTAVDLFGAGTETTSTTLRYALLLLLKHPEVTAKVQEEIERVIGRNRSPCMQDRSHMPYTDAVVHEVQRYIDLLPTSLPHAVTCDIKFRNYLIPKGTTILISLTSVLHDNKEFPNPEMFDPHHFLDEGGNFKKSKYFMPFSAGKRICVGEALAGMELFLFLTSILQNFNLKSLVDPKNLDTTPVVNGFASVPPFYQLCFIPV
# Chain of UniProt P10635 (P10635 whole entry, looked up): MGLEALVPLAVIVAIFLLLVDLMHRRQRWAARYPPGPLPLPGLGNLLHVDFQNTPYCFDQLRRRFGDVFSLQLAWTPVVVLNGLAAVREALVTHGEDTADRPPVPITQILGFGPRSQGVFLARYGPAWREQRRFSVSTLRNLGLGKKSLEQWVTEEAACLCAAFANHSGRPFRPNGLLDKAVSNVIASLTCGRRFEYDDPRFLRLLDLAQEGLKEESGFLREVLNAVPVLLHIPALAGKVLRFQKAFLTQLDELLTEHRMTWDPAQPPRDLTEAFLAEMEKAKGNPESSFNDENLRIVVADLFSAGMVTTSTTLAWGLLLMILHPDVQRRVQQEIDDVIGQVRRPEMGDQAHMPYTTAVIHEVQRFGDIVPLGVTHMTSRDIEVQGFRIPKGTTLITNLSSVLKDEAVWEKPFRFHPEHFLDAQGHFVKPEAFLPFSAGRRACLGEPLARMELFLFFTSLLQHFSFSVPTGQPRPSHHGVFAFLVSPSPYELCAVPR
smiles,measurement,setting,value
O=C(Nc1ccc(N2CCC(C(=O)N3CCOCC3)CC2)cc1)c1cnc(Oc2ccccc2)nc1,Potency,[1],inactive
same,Potency,[2],"inconclusive [inhibitor, partial curve, poor fit]"
same,Potency,[3],inactive
same,Potency,[4],inactive
same,Potency,[5],inactive
same,Potency,[6],inactive
same,Potency,[7],inactive
same,Potency,[8],inactive
C[C@H]1O[C@@H](O[C@H]2CC[C@@]3(C)C(CC[C@]4(C)C3CC=C3C5CC(C)(C)CC[C@]5(C(=O)O)CC[C@]34C(=O)O)C2(C)C)[C@H](O)[C@@H](O)[C@@H]1O (some centres not stated),Potency,[9],"inconclusive [inhibitor, full curve, poor fit]"
same,Potency,[5],inactive
same,Potency,[6],inactive
C=C(C)C(=O)O[C@H]1C[C@@](C)(OC(C)=O)[C@@]2(O)CC[C@@](C)(O)[C@H](OC(C)=O)[C@@]23OC(=O)C(COC)=C13,Potency,[3],"inconclusive [inhibitor, single point]"
same,Potency,[10],"inconclusive [inhibitor, single point]"
same,Potency,[9],"inconclusive [inhibitor, partial curve]"
same,Potency,[11],inactive
CC(C)(C)OC(=O)N1CCC(OCc2nc(-c3ccncc3)no2)CC1,Potency,[2],"inconclusive [inhibitor, single point]"
same,Potency,[3],inactive
same,Potency,[5],inactive
same,Potency,[6],"inconclusive [rising, partial curve, poor fit]"
same,Potency,[7],"inconclusive [cytotoxic, single point]"
c1ccc(N2CCN(CCc3nn[nH]n3)CC2)cc1,Potency,[12],"inconclusive [inhibitor, single point]"
same,Potency,[9],"inconclusive [inhibitor, full curve]"
same,Potency,[5],inactive
same,Potency,[6],"inconclusive [rising, full curve, poor fit]"
CC(=O)NC(CCC(=O)O)C(=O)NCCc1ccc(O)cc1 (configuration not stated),Potency,[9],"inconclusive [inhibitor, partial curve, poor fit]"
same,Potency,[5],inactive
same,Potency,[6],inactive

# — PubChem BioAssay (NCATS)
